Test results as given in PubChem BioAssay AID1468 (National Center for Advancing Translational Sciences (NCATS), 2008).
Out of some 280,000 compounds screened, about 1,100 (0.39%) were called active. Inconclusive means that the source gave no clear call. Such entries were picked first, then a sample of the others. Calls follow the shape of the dose curve; as a rule, active = well fitted inhibition curve with a large enough effect; inconclusive = small, poorly fitted or top-dose-only effect, or effect the other way; inactive = flat fitted curve, though single readings scatter. Potencies of inconclusive entries are left out as doubtful fits.

Target: Microtubule-associated protein tau (Homo sapiens) (UniProt P10636)
UniProt P10636, sequence (P10636 whole entry, looked up): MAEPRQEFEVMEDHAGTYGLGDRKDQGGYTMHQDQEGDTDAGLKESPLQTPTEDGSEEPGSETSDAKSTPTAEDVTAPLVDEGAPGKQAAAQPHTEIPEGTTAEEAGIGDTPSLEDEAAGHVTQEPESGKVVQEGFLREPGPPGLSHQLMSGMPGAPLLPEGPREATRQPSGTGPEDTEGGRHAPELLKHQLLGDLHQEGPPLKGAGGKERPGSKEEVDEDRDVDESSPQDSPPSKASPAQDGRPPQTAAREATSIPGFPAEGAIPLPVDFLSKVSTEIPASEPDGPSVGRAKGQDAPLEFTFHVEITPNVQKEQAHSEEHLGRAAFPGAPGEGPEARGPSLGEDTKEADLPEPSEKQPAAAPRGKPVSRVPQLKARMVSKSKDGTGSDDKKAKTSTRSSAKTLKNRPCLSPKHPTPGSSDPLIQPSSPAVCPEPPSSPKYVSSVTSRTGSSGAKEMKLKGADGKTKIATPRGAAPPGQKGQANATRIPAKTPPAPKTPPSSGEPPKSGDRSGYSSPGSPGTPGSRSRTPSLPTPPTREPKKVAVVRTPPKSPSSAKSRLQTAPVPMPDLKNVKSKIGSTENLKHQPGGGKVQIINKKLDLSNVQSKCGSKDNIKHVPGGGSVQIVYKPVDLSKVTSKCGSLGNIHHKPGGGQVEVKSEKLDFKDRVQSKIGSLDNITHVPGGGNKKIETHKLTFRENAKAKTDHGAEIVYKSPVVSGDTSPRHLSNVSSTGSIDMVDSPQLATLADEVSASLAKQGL
Assay: qHTS for Inhibitors of Tau Fibril Formation, Fluorescence Polarization; also: nearly all actives have a fitted effect of over 55% in size
Conditions: K18 P301L tau heparin fibrillization, Alexa594 FP, 6 h; series mostly up to 57.7 µM
Summary of the method: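 Quantitative HTS format: compounds meet 15 uM recombinant K18 P301L tau and Alexa 594-tau tracer in 100 mM sodium acetate pH 7; 20 uM heparin triggers fibrillization at 37 C over 6 hr; FP gives the signal.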
Potency is read from the fitted curve at half-maximal effect; tags tell the direction and shape of the fitted curve.

Structure (SMILES)	Potency
Cc1cc(NS(=O)(=O)c2ccc(NC(=O)/C=C/c3ccco3)cc2)nc(C)n1	inconclusive [inhibitor, single point]
CCOc1ccc(C2C(C(=O)C3CC3)N3C=C(C#N)C=CC3C2(C#N)C#N)cc1 (stereo not given)	inconclusive [inhibitor, partial curve]
C/C(=N\NC(=O)CSCc1ccccc1Br)c1cccc([N+](=O)[O-])c1	inconclusive [inhibitor, partial curve, poor fit]
Cc1ccc(-c2[nH]c(-c3ccccc3)nc2SCC(=O)NCC2CCCO2)cc1 (stereo not given)	inconclusive [activator, partial curve, poor fit]
COC(=O)c1ccc(NC(=O)COC(=O)c2cccc3c(=O)c(C)c(-c4ccccc4)oc23)cc1	inconclusive [inhibitor, partial curve]
CNC(=S)Nc1cccc(S(=O)(=O)NC2=NCCC2)c1	inactive
Cn1c(C(=O)Nc2ccc3c(c2)OCCO3)cc2c(=O)n(C)c3ccccc3c21	inconclusive [activator, single point]
CC(NC(=O)c1ccc2c(c1)N(Cc1ccc(Cl)cc1)C(=O)c1ccccc1S2(=O)=O)c1ccccc1 (stereo not given)	inconclusive [inhibitor, single point]
Cc1ccc(C)c(-c2cc(C(=O)Nc3sc(C)c(C)c3C(N)=O)c3ccccc3n2)c1	inconclusive [inhibitor, single point]
O=c1oc2c(CN3CCOCC3)c(O)ccc2cc1-c1ccc(Cl)cc1	inconclusive [inhibitor, single point]
N#C/C(=C\Nc1ccc2cn[nH]c2c1)c1nc(-c2ccc(Cl)cc2)cs1	inactive
CCOc1ccc(C2CC(=O)n3nc(-c4ccc(C)cc4)nc3S2)cc1 (stereo not given)	inconclusive [inhibitor, full curve, poor fit]
Cn1c(CC(=O)Nc2ccc(Cl)c(Cl)c2)nnc1SCC(=O)N1CCN(c2ccccc2)CC1	inactive
N#CC(C(=S)Nc1ccccc1)c1nc2ccccc2[nH]1 (stereo not given)	inactive
O=C(Nc1ccc2oc(-c3cccnc3)nc2c1)c1ccc(-c2ccc(Cl)cc2)o1	inconclusive [inhibitor, single point]
COC(=O)[C@@]1(Cc2ccc(OC)cc2)[C@H]2c3cc(C(=O)N(C)C)n(Cc4ccc(C)c(F)c4F)c3C[C@H]2CN1C(=O)c1ccccc1	inactive
NC(=O)c1ccc(NC(=O)CSc2nnc(-c3ccccn3)n2N)cc1	inactive
O=C(NC(=S)Nc1cccc(CO)c1)c1ccc(-c2ccccc2)cc1	inconclusive [inhibitor, partial curve]
O=C(Nc1ccccc1)N1CCN(Cc2ccccc2)CC1	inconclusive [inhibitor, partial curve, poor fit]
CCN(CC)S(=O)(=O)c1ccc(NC(=O)CCc2c(C)nc3cc(-c4ccc(Cl)cc4)nn3c2C)cc1	inconclusive [inhibitor, full curve]

Structure (SMILES)	Potency
COc1ccc(OCc2n[nH]c(=S)n2N)cc1	inconclusive [inhibitor, single point]
O=C(NC1CCCCC1)c1ccc(CS(=O)(=O)Cc2ccccc2F)o1	inconclusive [inhibitor, partial curve]
Nc1ncc(-c2ccccc2)c(-c2ccc(OCc3ccccc3)cc2O)n1	inconclusive [inhibitor, partial curve]
O=C1C=C(NC2=CC3OC(c4ccccc4)OCC3OC2=O)CCC1 (stereo not given)	inconclusive [inhibitor, single point]
O=C(CCC(=O)N1CCN(S(=O)(=O)c2ccc3ccccc3c2)CC1)Nc1cc(Cl)cc(Cl)c1	inconclusive [inhibitor, partial curve]
CC(C)(Oc1ccc(CCNC(=O)c2ccc(-c3ccccc3)o2)cc1)C(=O)O	inconclusive [inhibitor, single point]
COc1ccccc1NC(=O)NCCCN1CCN(c2cccc(Cl)c2)CC1	inactive
CCN(CC)S(=O)(=O)c1cc(NC(=O)COC(=O)c2sc3ccccc3c2Cl)ccc1C	inconclusive [inhibitor, partial curve]
COc1ccccc1CNC(=O)CN1C(=O)CSc2ccc(S(=O)(=O)N(C)C)cc21	inactive
CCCCC#Cc1cncc(C(=O)N/N=C/c2ccccc2)c1	inconclusive [inhibitor, partial curve, poor fit]
Brc1ccc(CSc2ccc(-c3ccco3)nn2)cc1	inactive
COc1cc2[nH]c(=S)n(Cc3ccc(C)cc3)c(=O)c2cc1OC	inconclusive [inhibitor, partial curve]
COc1ccc(C2NC(c3ccc(OC)cc3)C([N+](=O)[O-])C(C)(C)C2[N+](=O)[O-])cc1 (stereo not given)	inconclusive [inhibitor, single point]
O=C(Nc1ccc(O)c(-c2nc3ccccc3s2)c1)C1=COCCO1	inconclusive [inhibitor, single point]
Clc1cccc(-c2csc(-c3nc(-c4ccc(Br)s4)cs3)n2)c1	inactive
CCc1ccc(NC(=O)CSc2nc(-c3ccccc3)c(C#N)c(=O)[nH]2)cc1	inactive
c1ccc(Cn2nnc3c(Nc4ccc5c(c4)OCO5)nc(C4CC4)nc32)cc1	inconclusive [activator, partial curve, poor fit]
CC(C)(C)c1nnc2sc(SCC(=O)c3cccs3)nn2c1=O	inconclusive [inhibitor, single point]
CCCCn1c(N)c(N(CCC(C)C)C(=O)CSc2nnc(Nc3ccccc3)s2)c(=O)[nH]c1=O	inconclusive [inhibitor, single point]
CCCCC[n+]1ccn(C2=C([O-])c3ccccc3C(=O)/C2=N\S(=O)(=O)c2ccc(Br)cc2)c1	inconclusive [inhibitor, partial curve]
